Reference: the supplement of paper PMC7826260
Some of the results follow. Each Rep nickase domain was tested in vitro on the same pool of single strands (3 µM enzyme, 1 h, 37 °C); shown is the middle of each 90-letter strand. Numbers give uncut DNA relative to the enzyme-free pool, as log2; strong cutting gives strongly negative numbers. There is no active / inactive call. Because reads are shares of a total, they shift together, so uncut sequences can rise above 0 when many others are cut.

What follows are sequences tested on T1, Rep nickase domain of Muscovy duck circovirus (assay: uncleaved DNA left, log2 of reads against the no-enzyme library (log2 ratio); higher = less cleavage (more negative = more Rep cleavage of the k-mer); sequences stand for … in CTCGTCCG…ACCGGAGA).
T1 sequence (protein, residues 1-111, tag omitted): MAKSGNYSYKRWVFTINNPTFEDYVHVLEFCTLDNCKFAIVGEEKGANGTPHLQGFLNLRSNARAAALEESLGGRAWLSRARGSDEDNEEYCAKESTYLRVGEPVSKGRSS
Experimental: (§1)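 A pool of 90-nt single-stranded DNAs with seven random bases just before the constant AC of the nick site (name = the seven bases) was cut by 3 µM recombinant His6-SUMO-tagged Rep nickase domain (300 nM DNA, 50 mM HEPES pH 8.0, 50 mM NaCl, 1 mM MnCl2, 1 h, 37 °C, three replicates). Uncut DNA was amplified and sequenced.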

Row | Sequence | uncleaved DNA left (log2)
1 | GTTTCTG | 0.0875
2 | ACGGCGT | -0.00415
3 | ATGAAGT | 0.253
4 | GAAATTT | -0.147
5 | GACTAAT | -2.28
6 | CAGACGG | 0.103
7 | CGTCGTT | -0.0783
8 | CCGTGCG | -0.0163
9 | CACTCGC | -0.0969
10 | AGGGTCA | -0.0767
11 | ATGTCTC | -0.0536
12 | CTAATTG | 0.141
13 | GGTAGGT | 0.071
14 | GTAGCAC | -0.0342
15 | GTTTGAT | 0.000224
16 | GCGCGCG | 0.0494
17 | CTAGGCA | -0.0686
18 | TTGGGTT | 0.0974
19 | CACCCGT | -0.139
20 | ACTAAGG | 0.00121

Row | Sequence | uncleaved DNA left (log2)
21 | CCAACAG | -0.0489
22 | TGATACG | 0.0243
23 | TTCTCGC | -0.00877
24 | TACCGCG | -0.0315
25 | GCGGCTT | -0.119
26 | CACAATC | 0.0831
27 | GATTTAG | 0.0518
28 | AACTTCC | -0.632
29 | CATCACT | -0.173
30 | TGTACAT | 0.0284
31 | AGCTTGT | 0.0564
32 | CGCCGTC | 2.15e-05
33 | CGGCTTC | -0.06
34 | ATAGCCC | -0.0213
35 | CCATGCT | -0.631
36 | CTACCAT | -0.147
37 | AGGTTGG | 0.0469
38 | TCACGCA | 0.0051
39 | ACGTGAG | -0.0161
40 | CGCCTCG | -0.0533

Each sequence was assayed on T2, Rep nickase domain of banana bunchy top virus in the same assay as above.
T2 sequence (protein, residues 1-94, tag omitted): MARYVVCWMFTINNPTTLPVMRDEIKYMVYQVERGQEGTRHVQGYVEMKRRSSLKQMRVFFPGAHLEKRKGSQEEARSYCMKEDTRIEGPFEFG
Experimental: as §1

Row | Sequence | uncleaved DNA left (log2)
41 | GTTTCTG | -0.0646
42 | ACGGCGT | -0.183
43 | ATGAAGT | 0.0753
44 | GAAATTT | -0.105
45 | GACTAAT | -2.12
46 | CAGACGG | 0.127
47 | CGTCGTT | -0.0992
48 | CCGTGCG | -0.0297
49 | CACTCGC | 0.0989
50 | AGGGTCA | -0.00339
51 | ATGTCTC | -0.124
52 | CTAATTG | 0.0507
53 | GGTAGGT | 0.106
54 | GTAGCAC | -0.012
55 | GTTTGAT | 0.0716
56 | GCGCGCG | -0.0375
57 | CTAGGCA | 0.0198
58 | TTGGGTT | -0.18
59 | CACCCGT | -0.115
60 | ACTAAGG | 0.115

Row | Sequence | uncleaved DNA left (log2)
61 | CCAACAG | -0.0481
62 | TGATACG | -0.0411
63 | TTCTCGC | -0.118
64 | TACCGCG | -0.0569
65 | GCGGCTT | -0.105
66 | CACAATC | -0.0143
67 | GATTTAG | 0.0207
68 | AACTTCC | -0.0919
69 | CATCACT | -0.00492
70 | TGTACAT | 0.107
71 | AGCTTGT | 0.124
72 | CGCCGTC | -0.0687
73 | CGGCTTC | -0.078
74 | ATAGCCC | 0.112
75 | CCATGCT | -0.00889
76 | CTACCAT | -0.0747
77 | AGGTTGG | -0.0244
78 | TCACGCA | -0.12
79 | ACGTGAG | -0.0343
80 | CGCCTCG | 0.0191

Each sequence was assayed on T3, Rep nickase domain of cabbage leaf curl virus in the same assay as above.
T3 sequence (protein, residues 1-116, tag omitted): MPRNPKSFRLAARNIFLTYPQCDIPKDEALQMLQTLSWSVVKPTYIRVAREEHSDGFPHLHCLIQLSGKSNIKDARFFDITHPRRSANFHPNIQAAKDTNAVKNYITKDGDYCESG
Experimental: as §1

Row | Sequence | uncleaved DNA left (log2)
81 | GTTTCTG | 0.106
82 | ACGGCGT | -0.783
83 | ATGAAGT | -0.184
84 | GAAATTT | -2.74
85 | GACTAAT | 0.185
86 | CAGACGG | 0.3
87 | CGTCGTT | -0.205
88 | CCGTGCG | -0.533
89 | CACTCGC | -0.612
90 | AGGGTCA | 0.265
91 | ATGTCTC | -0.045
92 | CTAATTG | -0.551
93 | GGTAGGT | 0.621
94 | GTAGCAC | 0.208
95 | GTTTGAT | 0.431
96 | GCGCGCG | -0.588
97 | CTAGGCA | 0.0207
98 | TTGGGTT | 0.0557
99 | CACCCGT | -0.624
100 | ACTAAGG | -0.285

Row | Sequence | uncleaved DNA left (log2)
101 | CCAACAG | -0.67
102 | TGATACG | -0.927
103 | TTCTCGC | -0.485
104 | TACCGCG | -0.749
105 | GCGGCTT | 0.197
106 | CACAATC | -0.187
107 | GATTTAG | -0.649
108 | AACTTCC | -0.22
109 | CATCACT | -0.532
110 | TGTACAT | 0.73
111 | AGCTTGT | 0.124
112 | CGCCGTC | -0.00202
113 | CGGCTTC | 0.00412
114 | ATAGCCC | 0.0148
115 | CCATGCT | -0.8
116 | CTACCAT | -0.322
117 | AGGTTGG | -0.387
118 | TCACGCA | -0.222
119 | ACGTGAG | -0.679
120 | CGCCTCG | -0.617

These sequences were tested on T4, Rep nickase domain of chickpea chlorotic dwarf virus in the same assay as above.
T4 sequence (protein, residues 1-124, tag omitted): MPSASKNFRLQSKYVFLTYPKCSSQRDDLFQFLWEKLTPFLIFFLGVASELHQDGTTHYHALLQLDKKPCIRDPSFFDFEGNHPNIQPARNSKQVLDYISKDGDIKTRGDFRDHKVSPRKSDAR
Experimental: as §1

Row | Sequence | uncleaved DNA left (log2)
121 | GTTTCTG | 0.51
122 | ACGGCGT | -0.181
123 | ATGAAGT | -0.534
124 | GAAATTT | -2.47
125 | GACTAAT | -0.286
126 | CAGACGG | 0.924
127 | CGTCGTT | -1.37
128 | CCGTGCG | 0.707
129 | CACTCGC | -0.683
130 | AGGGTCA | 0.908
131 | ATGTCTC | -0.128
132 | CTAATTG | -0.577
133 | GGTAGGT | 1.28
134 | GTAGCAC | 0.699
135 | GTTTGAT | 0.957
136 | GCGCGCG | 0.429
137 | CTAGGCA | 0.107
138 | TTGGGTT | -0.08
139 | CACCCGT | -2.05
140 | ACTAAGG | 0.205

Row | Sequence | uncleaved DNA left (log2)
141 | CCAACAG | -1.38
142 | TGATACG | -0.78
143 | TTCTCGC | -0.867
144 | TACCGCG | 0.278
145 | GCGGCTT | 0.842
146 | CACAATC | -0.258
147 | GATTTAG | -0.581
148 | AACTTCC | -1.02
149 | CATCACT | -2.95
150 | TGTACAT | 1.63
151 | AGCTTGT | 0.649
152 | CGCCGTC | -0.156
153 | CGGCTTC | 0.244
154 | ATAGCCC | -0.318
155 | CCATGCT | -1.21
156 | CTACCAT | -2.51
157 | AGGTTGG | -0.444
158 | TCACGCA | -0.872
159 | ACGTGAG | -0.155
160 | CGCCTCG | -0.283

What follows are sequences tested on T5, Rep nickase domain of faba bean necrotic yellows virus in the same assay as above.
T5 sequence (protein, residues 1-98, tag omitted): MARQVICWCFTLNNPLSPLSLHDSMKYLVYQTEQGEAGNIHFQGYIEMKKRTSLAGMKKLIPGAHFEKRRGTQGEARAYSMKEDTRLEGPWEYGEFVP
Experimental: as §1

Row | Sequence | uncleaved DNA left (log2)
161 | GTTTCTG | -0.0313
162 | ACGGCGT | -0.0679
163 | ATGAAGT | 0.14
164 | GAAATTT | -0.0416
165 | GACTAAT | 0.038
166 | CAGACGG | 0.0711
167 | CGTCGTT | -0.0674
168 | CCGTGCG | -0.0292
169 | CACTCGC | -0.0598
170 | AGGGTCA | -0.0873
171 | ATGTCTC | -0.0406
172 | CTAATTG | 0.0551
173 | GGTAGGT | 0.0052
174 | GTAGCAC | -0.178
175 | GTTTGAT | 0.00299
176 | GCGCGCG | 0.00266
177 | CTAGGCA | 0.0629
178 | TTGGGTT | -0.0209
179 | CACCCGT | -0.0549
180 | ACTAAGG | 0.0882

Row | Sequence | uncleaved DNA left (log2)
181 | CCAACAG | 0.0212
182 | TGATACG | -0.000919
183 | TTCTCGC | -0.0823
184 | TACCGCG | 0.0401
185 | GCGGCTT | -0.181
186 | CACAATC | -0.0299
187 | GATTTAG | 0.0175
188 | AACTTCC | -0.143
189 | CATCACT | -0.016
190 | TGTACAT | -0.0047
191 | AGCTTGT | 0.134
192 | CGCCGTC | -0.175
193 | CGGCTTC | -0.0608
194 | ATAGCCC | 0.0596
195 | CCATGCT | -0.133
196 | CTACCAT | 0.00327
197 | AGGTTGG | -0.0239
198 | TCACGCA | -0.123
199 | ACGTGAG | 0.0707
200 | CGCCTCG | 0.0356
